Experimental data from PMC4336329 (PLoS ONE, 2015).
The whole screen tested about 310,000 compounds, of which about 2,200 (0.71%) showed an effect of 50% or more. The effect is printed as a negative number. The list shows a part of the results.

target: human ether-à-go-go-related gene (hERG) potassium channel (human, UniProt Q12809); assay: primary screen, population patch clamp on CHO cells stably expressing hERG
Sequence (Q12809 whole entry, looked up): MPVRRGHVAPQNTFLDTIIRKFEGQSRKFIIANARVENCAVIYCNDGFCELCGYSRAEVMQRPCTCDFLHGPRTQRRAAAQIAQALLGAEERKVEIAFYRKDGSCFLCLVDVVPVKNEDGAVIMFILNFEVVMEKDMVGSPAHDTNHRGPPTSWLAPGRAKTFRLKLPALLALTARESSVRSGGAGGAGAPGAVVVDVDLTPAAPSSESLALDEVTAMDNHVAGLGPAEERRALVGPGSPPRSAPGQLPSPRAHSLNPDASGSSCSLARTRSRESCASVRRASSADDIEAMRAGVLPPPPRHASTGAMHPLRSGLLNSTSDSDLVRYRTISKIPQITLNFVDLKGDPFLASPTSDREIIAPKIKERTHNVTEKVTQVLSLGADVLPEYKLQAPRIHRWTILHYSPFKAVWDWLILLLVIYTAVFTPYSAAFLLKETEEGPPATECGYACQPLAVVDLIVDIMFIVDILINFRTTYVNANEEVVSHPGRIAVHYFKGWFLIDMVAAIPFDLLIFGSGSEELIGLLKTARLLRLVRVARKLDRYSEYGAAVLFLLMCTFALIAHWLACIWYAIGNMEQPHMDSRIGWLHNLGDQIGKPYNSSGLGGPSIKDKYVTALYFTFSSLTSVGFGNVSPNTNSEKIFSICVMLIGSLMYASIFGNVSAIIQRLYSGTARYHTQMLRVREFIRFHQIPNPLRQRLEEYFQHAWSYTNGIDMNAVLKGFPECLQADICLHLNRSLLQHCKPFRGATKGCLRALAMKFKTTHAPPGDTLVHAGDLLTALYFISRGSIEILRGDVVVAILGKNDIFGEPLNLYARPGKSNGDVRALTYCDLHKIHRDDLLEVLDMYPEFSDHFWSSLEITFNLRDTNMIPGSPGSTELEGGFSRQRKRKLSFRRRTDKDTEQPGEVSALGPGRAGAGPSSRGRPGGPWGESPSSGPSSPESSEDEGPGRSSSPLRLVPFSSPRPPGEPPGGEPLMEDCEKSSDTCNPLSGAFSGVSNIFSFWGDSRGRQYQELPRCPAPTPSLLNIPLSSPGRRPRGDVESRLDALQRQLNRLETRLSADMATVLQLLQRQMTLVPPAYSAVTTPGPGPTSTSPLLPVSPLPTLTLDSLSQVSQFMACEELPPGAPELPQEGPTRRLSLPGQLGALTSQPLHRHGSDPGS

Going from `CCOc1ccc(NC(=O)COc2ccc(C(=O)NCc3cccc(OC)c3)cc2OC)cc1` to `CCOc1ccc(NC(=O)CCNS(=O)(=O)c2ccc3c(c2)CC(C)N3C(C)=O)cc1` (stereo not shown), the “hERG current change (%, negative = inhibition) at 1uM” value rises from 4.5% to 12.6%.

Going from `COc1ccccc1CNC(=O)c1cnccn1` to `COc1cc2c(C(=O)NCc3ccccn3)cn(CC(C)C)c(=O)c2cc1OC`, the “hERG current change (%, negative = inhibition) at 1uM” value rises from 5.91% to 14.1%.

Going from `Cc1nc([N+](=O)[O-])cn1CCC#N` to `Cc1cc(C)nc(-n2ncc(C#N)c2N)n1`, the “hERG current change (%, negative = inhibition) at 1uM” value rises from 6.54% to 8.82%.

First: O=C1CCc2cc(NS(=O)(=O)c3ccc(Br)cc3)cc3c2N1CC3
Second: O=S(=O)(Nc1ccc(Br)cc1)N1CCOCC1
The “hERG current change (%, negative = inhibition) at 1uM” value of the first is lower: -0.938% for the first, 6.85% for the second.

Going from `CC(c1n[nH]c(=S)n1Cc1ccccc1)N(C)C` (stereo not shown) to `Cc1ccc(NC(=O)C(C)N2C(=O)c3ccccc3C2=O)nc1` (stereo not shown), the “hERG current change (%, negative = inhibition) at 1uM” value rises from 7.92% to 20.4%.

Compared with `O=C(Cc1ccc2c(c1)OCCO2)c1c(O)cc(O)cc1O`, `O=C(Cn1c(=O)[nH]c2ccccc2c1=O)Nc1ccc2c(c1)OCCO2` is higher in “hERG current change (%, negative = inhibition) at 1uM” value: 7.12% for the first, 14.6% for the second.

Compared with `NC(=S)N/N=C1\CC(c2ccc3c(c2)OCCO3)Oc2ccc(F)cc21` (stereo not shown), `CCN(CC(=O)Nc1ccc2c(c1)OCCO2)S(=O)(=O)c1ccc(C)cc1` is lower in “hERG current change (%, negative = inhibition) at 1uM” value: 15.3% for the first, -2.78% for the second.

Compared with `COc1cc(/C=C/C(=O)OCC(=O)NC(=O)NC(C)C)cc(S(=O)(=O)N2CCc3ccccc32)c1OC`, `COc1ccc(CCNS(=O)(=O)c2ccc3c(c2)CC(C)N3C(C)=O)cc1OC` (stereo not shown) is lower in “hERG current change (%, negative = inhibition) at 1uM” value: 5.77% for the first, -2.97% for the second.

First: Cc1c(NC(=O)COC(=O)c2c3c(nc4ccccc24)CCCC3)c(=O)n(-c2ccccc2)n1C
Second: Cc1c(NC(=O)c2ccc(S(=O)(=O)N(C)c3ccccc3)cc2)c(=O)n(-c2ccccc2)n1C
The “hERG current change (%, negative = inhibition) at 1uM” value of the first is lower: 11.9% for the first, 15.4% for the second.

First: Cc1nc(Cl)c(S(N)(=O)=O)c(C)c1Cl
Second: CCOC(=O)C1=C(C)Nc2ccccc2N/C1=N\S(=O)(=O)c1cccc(Cl)c1
The “hERG current change (%, negative = inhibition) at 1uM” value of the first is higher: 10.3% for the first, 7.87% for the second.

First: Cc1cccc(NC(=S)N(Cc2ccc(Br)cc2)Cc2ccc(C(=O)O)cc2)c1
Second: COc1cccc(NC(=S)Nc2cc(C(=O)O)ccc2N2CC3CC(C2)c2cccc(=O)n2C3)c1 (stereo not shown)
The “hERG current change (%, negative = inhibition) at 1uM” value of the first is higher: 12.7% for the first, 12.3% for the second.

Compared with `CC(=O)N1CCN(CC(C)(C)NS(=O)(=O)c2ccc(C)cc2)CC1`, `CCNS(=O)(=O)c1ccc(CCC(=O)N2CCN(c3ccc(OC)cc3)CC2)cc1` is higher in “hERG current change (%, negative = inhibition) at 1uM” value: 6.35% for the first, 9.79% for the second.

Compared with `N#Cc1c(N)nc2c(c1N)CC(C(F)(F)F)O2` (stereo not shown), `CC(C)OC(=O)CSc1nc(N)c(C#N)c(-c2cccs2)c1C#N` is lower in “hERG current change (%, negative = inhibition) at 1uM” value: 19% for the first, 9.92% for the second.

First: COc1ccccc1NC(=O)c1ccc(NC(=O)COC(=O)CC(NC(=O)c2ccccc2Cl)c2ccccc2)cc1 (stereo not shown)
Second: Cc1onc(-c2c(F)cccc2Cl)c1C(=O)OCC(=O)NC(c1ccccc1)c1ccccc1
The “hERG current change (%, negative = inhibition) at 1uM” value of the first is higher: 14% for the first, -4.07% for the second.

Going from `Cc1ccnc(NC(=O)c2ccc3c(c2)C(=O)N(CC(C)C)C3=O)c1` to `Cc1ccc(C(=O)Nc2cccnc2)cc1Cl`, the “hERG current change (%, negative = inhibition) at 1uM” value falls from 12.5% to 9%.

Going from `CC(=O)c1ccc(C(=O)N2CCC(CO)(Cc3cccc(C(F)(F)F)c3)CC2)cc1` to `CC(=O)c1ccc(N2CCN(C(=O)c3ccc(C(=O)c4ccccc4)cc3)CC2)cc1`, the “hERG current change (%, negative = inhibition) at 1uM” value rises from -33.1% to 4.52%.

First: COc1ccc2[nH]c(=O)c(CN(Cc3cccnc3)Cc3nnnn3CC3CCCO3)cc2c1 (stereo not shown)
Second: Cc1ccc2cc(-c3noc(C4CCCCC4)n3)c(=O)[nH]c2c1
The “hERG current change (%, negative = inhibition) at 1uM” value of the first is lower: 10.9% for the first, 12.8% for the second.

First: COc1ccc(OCCNC(=O)CCCO)cc1
Second: O=C(COc1ccc(Br)cc1)N(CCO)CCO
The “hERG current change (%, negative = inhibition) at 1uM” value of the first is higher: 11.7% for the first, 7.4% for the second.

First: COc1ccc(C2CCCN2C(=O)Nc2ccccc2)cc1OC (stereo not shown)
Second: S=C(Nc1ccccc1)N1CCn2c1nc1ccccc12
The “hERG current change (%, negative = inhibition) at 1uM” value of the first is higher: 4.51% for the first, 0.203% for the second.

Going from `CC(=O)c1cccc(N2C(=O)CC(N3CCN(S(=O)(=O)c4ccc(Cl)cc4)CC3)C2=O)c1` (stereo not shown) to `CC(=O)Nc1ccc(S(=O)(=O)Nc2ccc(S(=O)(=O)N3CCCCCC3)cc2)cc1`, the “hERG current change (%, negative = inhibition) at 1uM” value rises from 1.19% to 7.65%.

First: COCCOc1cc(N)c(Cl)cc1Cl
Second: CCOc1cc(-c2nn3cnnc3s2)cc(OCC)c1OCC
The “hERG current change (%, negative = inhibition) at 1uM” value of the first is lower: 7.73% for the first, 7.82% for the second.

Going from `COc1ccc(N2C=C3C(=O)C(C)(OC(=O)CCc4ccccc4)C(=O)C=C3C=C2c2ccc(C#N)cc2)cc1` (stereo not shown) to `O=C1NC(c2ccccc2)=C(c2ccc3ccccc3n2)C(c2ccc(F)cc2)N1` (stereo not shown), the “hERG current change (%, negative = inhibition) at 1uM” value falls from 14.6% to 7.04%.

Going from `O=S(=O)(c1ccc(Cl)s1)N1CCCc2cccc(O)c21` to `COc1ccc(OC2CCN(S(=O)(=O)c3cccc(F)c3)CC2)cc1`, the “hERG current change (%, negative = inhibition) at 1uM” value falls from 16.7% to 10.4%.

First: COc1cc(CN2CC(=O)N(c3cccc(Cl)c3C)C2=S)cc(OC)c1OC
Second: COc1cc(OC)c(C2CC(=O)N3CN(c4ccc(C)cc4)CSC3=C2C#N)cc1OC (stereo not shown)
The “hERG current change (%, negative = inhibition) at 1uM” value of the first is higher: 11.6% for the first, -0.377% for the second.

First: CCOCCOC(=O)c1ccc(-n2cnc(C)n2)nc1
Second: CCOC(=O)c1ccc(NC(=O)Nc2ccon2)cc1
The “hERG current change (%, negative = inhibition) at 1uM” value of the first is lower: 5.74% for the first, 11.5% for the second.

First: Cc1ccc(NC(=O)CSc2nc(-c3ccco3)cc(C(F)(F)F)n2)cc1C
Second: CCC(=O)NCCc1nc2cc(NC(=O)c3cccc([N+](=O)[O-])c3)ccc2n1C
The “hERG current change (%, negative = inhibition) at 1uM” value of the first is lower: -4.17% for the first, 11.8% for the second.

Going from `CC1CCCC(NC(=O)COC(=O)c2cccc(NS(=O)(=O)/C=C/c3ccccc3)c2)C1C` (stereo not shown) to `CC(=O)c1cccc(NC(=O)CNC(=O)c2cc3ccccc3o2)c1`, the “hERG current change (%, negative = inhibition) at 1uM” value falls from 15% to 10.9%.

Compared with `CN(C)S(=O)(=O)c1ccc2[nH]cc(/C=C/c3nc4ccccc4c(=O)n3-c3ccccc3)c2c1`, `CC1=C(C(=O)OCc2ccccc2)C(c2ccccc2OS(=O)(=O)c2ccc([N+](=O)[O-])cc2)NC(=O)N1CCCC(=O)O` (stereo not shown) is lower in “hERG current change (%, negative = inhibition) at 1uM” value: 12.4% for the first, 6.89% for the second.

First: CCCCNCC1C(Oc2ccc(Cl)cc2)C(=O)N1c1ccccc1C.Cl (stereo not shown)
Second: CCOc1ccc(S(=O)(=O)Nc2cnc3ccccc3c2)cc1
The “hERG current change (%, negative = inhibition) at 1uM” value of the first is higher: 2.69% for the first, 1.61% for the second.

First: Cc1sc(NC(=O)CSc2nnc(-c3ccccc3)o2)c(C#N)c1C
Second: N/C(CSc1nc(-c2ccccc2)c(-c2ccccc2)o1)=N\O
The “hERG current change (%, negative = inhibition) at 1uM” value of the first is higher: 12% for the first, -10.3% for the second.

Compared with `NS(=O)(=O)c1ccc(NC(=S)NCc2ccccc2Cl)cc1`, `Cc1ccc(NS(=O)(=O)c2ccc(NC(=O)c3cccs3)cc2)c(C)c1` is lower in “hERG current change (%, negative = inhibition) at 1uM” value: 15.1% for the first, 7.36% for the second.

Compared with `Cc1ccc(CN(C#N)c2nc(C)cc(C)n2)cc1`, `Cc1nnc(SCC(=O)NC(C)(C)C)n1NCc1cccc(Br)c1` is lower in “hERG current change (%, negative = inhibition) at 1uM” value: 8.7% for the first, 6.96% for the second.

Compared with `CN1CCN/C1=C(/C(Cl)=C(Cl)Cl)[N+](=O)[O-]`, `COc1ccc2c(C(=O)CN3CCN(CCO)CC3)c[nH]c2c1` is lower in “hERG current change (%, negative = inhibition) at 1uM” value: 16.2% for the first, -3.72% for the second.

Compared with `CCN(CC)CCN(C(=O)c1ccc(S(=O)(=O)N2CCCCC2)cc1)c1nc2cc3c(cc2s1)OCO3.Cl`, `O=C(c1ccc(NS(=O)(=O)c2ccc3[nH]c(=O)[nH]c3c2)cc1)N1CCCCC1` is lower in “hERG current change (%, negative = inhibition) at 1uM” value: 1.02% for the first, -4.74% for the second.

First: CC(C)Oc1ccc(S(=O)(=O)N2CCOCC2)cc1NC(=O)C1CCCCC1
Second: Cc1ccc(C(=O)N2CCN(c3cccc(C)c3C)CC2)cc1S(=O)(=O)N1CCOCC1
The “hERG current change (%, negative = inhibition) at 1uM” value of the first is higher: 5.06% for the first, -2.68% for the second.

First: COC(=O)C1=CO[C@@H](C)[C@H]2CN3CCc4c([nH]c5ccccc45)[C@@H]3C[C@H]12.Cl
Second: CCC(C(=O)NC1CCCC1)N(C(=O)Cn1nnc(-c2cccs2)n1)c1cnc2ccccc2c1 (stereo not shown)
The “hERG current change (%, negative = inhibition) at 1uM” value of the first is lower: -0.205% for the first, 11.5% for the second.

Compared with `CN(C)c1ccc(C(=S)N2CCN(c3ccc([N+](=O)[O-])cc3)CC2)cc1`, `Cc1cc(N2CCN(C)CC2)ccc1NC(=O)c1ccc(-c2ccc(Cl)cc2)o1` is higher in “hERG current change (%, negative = inhibition) at 1uM” value: -4.99% for the first, -4.7% for the second.

Compared with `COc1cccc(OCC(O)CN2CCN(c3ccccn3)CC2)c1.Cl` (stereo not shown), `COc1cccc(NC(=O)CCSc2ccc3ccccc3n2)c1` is lower in “hERG current change (%, negative = inhibition) at 1uM” value: 6.51% for the first, 6.26% for the second.

Compared with `Cc1ccc2nc(N3C(=O)CNC3=S)sc2c1`, `Nc1nnc(CC(=O)N/N=C/c2ccc(-c3ccccc3Cl)o2)s1` is lower in “hERG current change (%, negative = inhibition) at 1uM” value: 21% for the first, 14.1% for the second.

Compared with `CC(C)Cc1cc(C(=O)N2CCCC(CO)(Cc3ccc(F)cc3)C2)no1` (stereo not shown), `Cc1cccc(CN2CCN(CC(C)C)C(CCO)C2)n1` (stereo not shown) is higher in “hERG current change (%, negative = inhibition) at 1uM” value: -0.285% for the first, 9.17% for the second.

First: O=C(NCC1CCCO1)c1ccc2c(=O)n(CC3CCCO3)c(SCC(=O)N3CCCC3)nc2c1 (stereo not shown)
Second: Cc1ccccc1N(C(=O)CNC(=O)c1ccco1)C(C(=O)NC1CCCCC1)c1ccncc1 (stereo not shown)
The “hERG current change (%, negative = inhibition) at 1uM” value of the first is higher: 5.44% for the first, 5.2% for the second.

Compared with `CNC(=S)Nc1cccc([N+](=O)[O-])c1`, `CN1CCN(C(=O)/C=C/c2cccc(Cl)c2)CC1` is higher in “hERG current change (%, negative = inhibition) at 1uM” value: -8.83% for the first, 12.5% for the second.

`O=C(Nc1ccc2oc(-c3ccccc3)nc2c1)c1ccccc1F` was tested, and the “hERG current change (%, negative = inhibition) at 1uM” value was 1.51%.
